Measurements published in PubChem BioAssay AID360 (National Center for Advancing Translational Sciences (NCATS), 2006).
Among all 48,000 compounds or so, about 550 (1.1%) were called active. Another 4% or so got no clear call; they are omitted. No stated cut-off is given here; in the data, active means potency below about 15 µM; inconclusive means mostly about 16 µM to 33 µM; inactive means weaker than that. The list shows a part of the results.

The molecules below were run against Lysosomal acid glucosylceramidase (Homo sapiens) (UniProt P04062) (assay: Glucocerebrosidase). Conditions: purified enzyme, resorufin glucoside fluorescence (screen aimed at inhibitors), 20 min.
In short: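 Compounds titrated against 0.2 nM normal enzyme, 30 uM resorufin beta-D-glucopyranoside substrate, citrate/phosphate buffer with taurocholate and tween-20, pH 5.9. Reaction ran 20 min at room temperature; fluorescence (Ex 548/Em 600) gave AC50.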
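Further: the screen sought inhibitors.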
Potency means the concentration at half of the fitted maximal effect.

Sequence of UniProt P04062 (P04062 whole entry, looked up): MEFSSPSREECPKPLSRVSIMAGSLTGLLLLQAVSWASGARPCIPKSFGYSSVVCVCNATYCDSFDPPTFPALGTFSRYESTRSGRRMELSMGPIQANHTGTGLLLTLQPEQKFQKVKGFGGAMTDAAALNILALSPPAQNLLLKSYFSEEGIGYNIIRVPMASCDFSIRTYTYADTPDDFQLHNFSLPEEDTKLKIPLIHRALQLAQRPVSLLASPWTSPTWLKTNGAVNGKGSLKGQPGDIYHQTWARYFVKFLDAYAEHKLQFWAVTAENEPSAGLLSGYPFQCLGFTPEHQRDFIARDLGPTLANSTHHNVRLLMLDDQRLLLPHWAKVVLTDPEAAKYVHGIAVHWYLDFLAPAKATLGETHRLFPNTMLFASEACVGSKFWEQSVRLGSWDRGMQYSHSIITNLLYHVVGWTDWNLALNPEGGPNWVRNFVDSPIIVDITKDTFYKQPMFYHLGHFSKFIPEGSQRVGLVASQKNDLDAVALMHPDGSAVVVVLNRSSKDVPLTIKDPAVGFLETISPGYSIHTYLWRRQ

Potency, inactive:
Cc1c(C(=O)NCCc2ccccc2)oc2ccc(S(=O)(=O)N3CCC4(CC3)OCCO4)cc12 > 76.9 µM, O=C1N=C(N2CCOCC2)CS1 > 76.9 µM, Cc1cc(CC(C)C)n(-c2nc3ccccc3c(=O)n2OCC(N)=O)n1 > 76.9 µM, CN(C)CCNC(=O)Cn1nc(C(F)F)cc1C1CC1 > 76.9 µM, CCOCCCNC(=O)C1CCCCN1S(=O)(=O)c1ccc(F)cc1 (stereo not drawn) > 76.9 µM, O=C(CSc1nnc2sc3ccccc3n12)c1ccco1 > 76.9 µM, Cc1ccc2oc(-c3ccc(NC(=O)c4ccc5c(c4)OCO5)cc3)nc2c1 > 76.9 µM, O=C(c1ccc(C(F)(F)F)cc1)N1CCCCC1 > 76.9 µM, COc1cc(C2N(c3ccc(Cl)c(Cl)c3)C(=O)C3CCCN32)cc(OC)c1OC (stereo not drawn) > 76.9 µM, CSc1nnc2c3cc(F)ccc3n(Cc3ccccc3)c2n1 > 76.9 µM, Cc1cnc(C(=O)N2CCN(S(=O)(=O)c3ccc4ccccc4c3)CC2)cn1 > 76.9 µM, CCOC(=O)c1cc2c(ccn2C)n1Cc1ccccc1C > 76.9 µM, COCCn1c(SCC(=O)c2ccc3c(c2)OCCO3)nnc1-c1ccoc1C > 76.9 µM, O=C(CC1NC2CCCCC2NC1=O)Nc1ccc2c(c1)OCO2 (stereo not drawn) > 76.9 µM, COC(=O)CCn1nnc(-c2ccc(C)cc2)n1 > 76.9 µM, COC(=O)CNc1nc(C2CC2)nc2c1nnn2Cc1ccccc1Cl > 76.9 µM, COc1ccc2c(c1)Cc1sc(NC(=O)c3cccs3)nc1-2 > 76.9 µM, Cc1cccc(-c2nc(CSCC(=O)N3CCN(Cc4ccc5c(c4)OCO5)CC3)c(C)o2)c1 > 76.9 µM, CCCCCCn1c(C(C)NC(=O)c2ccco2)nc2ccccc21 (stereo not drawn) > 76.9 µM, Cn1nnnc1SCC(=O)NCCCc1ccccc1 > 76.9 µM, Cc1c(N(C)C(=O)c2ccccc2F)c(=O)n(-c2ccccc2)n1C > 76.9 µM, COc1ccccc1CNC(=O)CN(C)CC(=O)Nc1cccc(F)c1 > 76.9 µM, O=C(CCCN1C(=O)CSc2ncccc21)N1CCN(c2cccc(C(F)(F)F)c2)CC1 > 76.9 µM, O=C(O)CSCC(=O)Nc1cccc2ccccc12 > 76.9 µM, O=C(C1CCN(S(=O)(=O)N2CCOCC2)CC1)N1CCOCC1 > 76.9 µM, CCOc1ccc(C(=O)NCC(=O)OC(C)C(=O)NCc2ccco2)cc1OCC (stereo not drawn) > 76.9 µM, c1ccc(Oc2cccc(NC3=NCCC3)c2)cc1, CCc1nc(SCc2cc(Cl)ccc2OC)n[nH]1 > 76.9 µM, COc1ccc(C2C(C(=O)Nc3cc(C)on3)c3ccccc3C(=O)N2C)cc1 (stereo not drawn) > 76.9 µM, Cc1ccc(N2CC(C(=O)NCCCn3ccnc3)CC2=O)cc1 (stereo not drawn) > 76.9 µM, CCOC(=O)C1CSC(CC(=O)Nc2ccc(Cl)cc2)C(=O)N1 (stereo not drawn) > 76.9 µM, O=C(Nc1ccc(Oc2ncccn2)cc1)c1ccco1 > 76.9 µM, COCCn1c(SCC(=O)N2CCCc3ccccc32)nc2cccnc21 > 76.9 µM, Cc1cc(C(=O)N2CCc3ccccc32)c2ccccc2n1 > 76.9 µM, CN(C)c1oc(-c2ccco2)nc1C#N > 76.9 µM, CCc1nc(N)c(C#N)c(-c2cccnc2)c1C > 76.9 µM, CC(=O)c1ccc(NC2CC(O)C(O)CO2)cc1 (stereo not drawn) > 76.9 µM, CCCCn1c(SCC(=O)Nc2nc(C)cs2)nnc1-c1cccnc1 > 76.9 µM, O=C(O)C(Cc1ccccc1)n1cnnn1 (stereo not drawn) > 76.9 µM, Cc1cc(C(F)(F)F)n2nc(C(=O)O)c(Cl)c2n1 > 76.9 µM, CCc1cc2c(cc(C(=O)O)n2C)s1 > 76.9 µM, CCCCCn1c(CN2CCN(c3cccc(Cl)c3)CC2)nc2c1c(=O)[nH]c(=O)n2C > 76.9 µM, CCN(CCNC(=O)CN1CCN(Cc2ccc(Cl)cc2)C1=O)c1ccccc1 > 76.9 µM, CC(=O)Nc1ccc(NC(=O)c2c(C)nc3ccccn23)cc1 > 76.9 µM, O=C(O)c1ccc(CSc2nc3ccccc3o2)cc1 > 76.9 µM, Cc1ccccc1NC(=O)C1CC(=O)N(c2ccccc2F)C1 (stereo not drawn) > 76.9 µM, O=C(CSc1nnc(-c2cnccn2)n1Cc1ccco1)c1ccc(Cl)cc1 > 76.9 µM, CC(C)(C)C(=O)COC(=O)c1cccc(NC(=O)c2ccco2)c1 > 76.9 µM, O=C(O)COc1cccc(NC(=O)C2CCCO2)c1 (stereo not drawn) > 76.9 µM, O=C(CC1N=C2c3ccccc3N=C(SCc3ccccc3Cl)N2C1=O)NCc1ccco1 (stereo not drawn) > 76.9 µM, O=S(=O)(Cc1ccc(Cl)cc1)N1CCCC1 > 76.9 µM, CCCCC(=O)Nc1nnn(CCC)n1 > 76.9 µM, Nn1c(SCC(=O)Nc2ccccc2F)nc2ccccc2c1=O > 76.9 µM, COc1ccc(NC(=O)CSC2CC(=O)N(c3ccc4c(c3)OCCO4)C2=O)cc1 (stereo not drawn) > 76.9 µM, COc1ccc2cc(C(=O)NCc3ccco3)c(=Nc3ccc(C(=O)O)cc3)oc2c1 > 76.9 µM, O=C(CNS(=O)(=O)c1cccc2nonc12)NCc1ccc(F)cc1 > 76.9 µM, COc1ccc(-c2nnc(SCC(=O)NCc3ccco3)n2C)cc1 > 76.9 µM, O=C(CC(Nc1ccccc1)C(=O)O)c1ccccc1 (stereo not drawn) > 76.9 µM, O=C1NC(=O)C2(CCc3ccccc32)N1 (stereo not drawn) > 76.9 µM, Fc1cccc(Cl)c1Cn1nnc2c(NCc3ccccn3)ncnc21 > 76.9 µM, COCCn1nnnc1CN1CCOCC1 > 76.9 µM, Cn1c(=O)[nH]c(=O)c2c1nc1n2CCCS1 > 76.9 µM, O=C(CCNC(=O)Cn1ccc2ccccc2c1=O)NCCN1CCN(c2cccc(Cl)c2)CC1 > 76.9 µM, Cc1ccc(-c2nnc(SCC(=O)Nc3ccc4c(c3)OCCO4)n2N)cc1 > 76.9 µM, COc1ccc(OC)c(-n2c(SCC(C)=O)nnc2-c2cccc(S(=O)(=O)N(C)C)c2)c1 > 76.9 µM, CCCNC(=O)c1cc(-c2ccc(Br)cc2)on1 > 76.9 µM, Cc1cc(C)cc(-c2nnc(SCC(=O)NCc3cccs3)o2)c1 > 76.9 µM, c1ccc(CSc2nnc(-c3cccs3)o2)cc1 > 76.9 µM, O=C1CC(c2cccs2)c2cc3c(cc2N1)OCCO3 (stereo not drawn) > 76.9 µM, C=CCN1C(=O)N(/C=C/C)c2cccc3cccc1c23 > 76.9 µM, Cc1ccc(Cn2c(SCC(=O)Nc3cc(C)on3)nc3ccccc3c2=O)cc1 > 76.9 µM, CCc1cccc(NC(=O)CN(C)S(=O)(=O)c2cccc3nsnc23)c1 > 76.9 µM, CCN(CC)C(=O)CSc1nnc(CCN)o1 > 76.9 µM, CC12CCC(c3c(C(=O)O)nn(-c4ccccc4)c31)C2(C)C (stereo not drawn) > 76.9 µM, CCOC(=O)C1CCCN(S(=O)(=O)c2cc(OCC(N)=O)c(C)cc2Cl)C1 (stereo not drawn) > 76.9 µM, CCOC(=O)c1cccc(NC(=O)CSc2nc(N)cc(N)n2)c1 > 76.9 µM, CCOCCCNC(=O)C1CCCN(S(=O)(=O)CC)C1 (stereo not drawn) > 76.9 µM, CCn1c(=O)cc(SCC(=O)Nc2ccc3c(c2)OCO3)c2ccccc21 > 76.9 µM, CC(=O)c1cccc(NC(=O)NCc2cccnc2)c1 > 76.9 µM, CCCOc1ccc(C2C(C(=O)c3ccc(C)o3)=C(O)C(=O)N2CCCn2ccnc2)cc1 (stereo not drawn) > 76.9 µM, COc1ccc(C2C3=C(CC(C)(C)CC3=O)N(CCN3CCOCC3)C3=C2C(=O)CC(C)(C)C3)cc1 > 76.9 µM, COC(=O)[C@@H](NC(=O)NCc1ccco1)C(C)C > 76.9 µM, Cc1cccc(N2CC(C(=O)Nc3ccc4c(c3)OCO4)CC2=O)c1C (stereo not drawn) > 76.9 µM, CC1CCN(S(=O)(=O)c2ccc3c(c2)CCN3C(=O)CCC(=O)O)CC1 > 76.9 µM, CC(C)CCn1c(Br)nc2c1c(=O)n(CC(N)=O)c(=O)n2C > 76.9 µM, COc1ccc2c(c1)CCc1c(C(=O)Nc3cc(C)n(Cc4ccc(Cl)cc4)n3)noc1-2 > 76.9 µM, CC(=O)c1ccc(N2CCN(C(=O)C3CCCN(S(=O)(=O)c4cnc[nH]4)C3)CC2)cc1 (stereo not drawn) > 76.9 µM, CCn1nc(C(=O)OC2CCOC2=O)c2ccccc2c1=O (stereo not drawn) > 76.9 µM, Cc1ccc(NC(=O)N2CCCN(Cc3ccc(F)cc3)C2)cc1C, CCOC(=O)Cc1csc(NC(=O)CSc2nnc(-c3ccc(F)cc3)o2)n1 > 76.9 µM, CC(=O)c1cccc(OCC(=O)c2cc(C)n(-c3cc(C)on3)c2C)c1 > 76.9 µM, Cc1cccc(NC(=O)CSc2nnc(-c3ccco3)o2)c1C > 76.9 µM, Cc1cc(C)n(S(=O)(=O)c2cc(Cl)ccc2Cl)n1 > 76.9 µM
